From a collection of fitness landscapes (doi:10.1016/j.celrep.2020.107928)
Whole data set: some 81,000 sequences, median “one-hybrid fitness for binding parS DNA” near -0.17, cut for the highest 2% near 0.51. The list shows a part of the results.

B1: Caulobacter ParB omega fusion; a variant is named by its letters at X, in order, B8GW30 (parent)
chain: MESVVVGEPGMSEGRRGLGRGLSALLGEVDAAPAQAPGEQLGGSREAPIEILQRNPDQPRRTFREEDLEDLSNSIREKGVLQPILVRPSPDTAGEYQIVAGERAWRAAQRAGLKTVPIMVRELDDLAVLEIGIIENVQRADLNVLEEALSYKVLMEKFERTQENIAQTIGKSXSHVANXMRLLXLPDEVQSYLVSGELTAXHARAIAAAADPVALAKQIIEGGLSVRETEALARKAPNLSAGKSKGGRPPRVKDTDTQALESDLSSVLGLDVSIDHRGSTGTLTITYATLEQLDDLCNRLTRGI

Variants of: B1
Assay: one-hybrid fitness for binding parS DNA (scaled: cognate 1, non-cognate 0); higher = stronger binding
Conditions: with parS DNA site
In short: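 Values were rescaled so that cognate is 1 and non-cognate is 0. Each is a fitness, the log change in a variant's read ratio to wild type from Illumina reads of plasmids before and after selection, with three replicate libraries pooled and variants under 10 reads dropped. Selection of the Caulobacter ParB libraries, four specificity codons randomised, used E. coli USO with a HIS3 reporter, site 19 bp from the promoter, on M9-minus-histidine with 0.1 mM IPTG and 5 mM 3-AT for 48 hours at 37°C.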

IQVL and ALHS cannot be ordered by “one-hybrid fitness for binding parS DNA” value: ≤ 0.2 for the first, ≤ 0.2 for the second.

Going from TQNC to WDEV, the “one-hybrid fitness for binding parS DNA” value rises from ≤ 0.2 to 0.376.

SHVM and ANHG cannot be ordered by “one-hybrid fitness for binding parS DNA” value: ≤ 0.2 for the first, ≤ 0.2 for the second.

YTCF and QSYT cannot be ordered by “one-hybrid fitness for binding parS DNA” value: ≤ 0.2 for the first, ≤ 0.2 for the second.

FPGC and IYGV cannot be ordered by “one-hybrid fitness for binding parS DNA” value: ≤ 0.2 for the first, ≤ 0.2 for the second.

IVWG and MPCT cannot be ordered by “one-hybrid fitness for binding parS DNA” value: ≤ 0.2 for the first, ≤ 0.2 for the second.

DFSK and DCWR cannot be ordered by “one-hybrid fitness for binding parS DNA” value: ≤ 0.2 for the first, ≤ 0.2 for the second.

QDDL and WGWR cannot be ordered by “one-hybrid fitness for binding parS DNA” value: ≤ 0.2 for the first, ≤ 0.2 for the second.

First: RTVY
Second: GFKS
The “one-hybrid fitness for binding parS DNA” value of the first is higher: 0.443 for the first, ≤ 0.2 for the second.

RRTP and CQPS cannot be ordered by “one-hybrid fitness for binding parS DNA” value: ≤ 0.2 for the first, ≤ 0.2 for the second.

HRAK and ALCC cannot be ordered by “one-hybrid fitness for binding parS DNA” value: ≤ 0.2 for the first, ≤ 0.2 for the second.

PHDP and TKSA cannot be ordered by “one-hybrid fitness for binding parS DNA” value: ≤ 0.2 for the first, ≤ 0.2 for the second.

SPCH and PSFI cannot be ordered by “one-hybrid fitness for binding parS DNA” value: ≤ 0.2 for the first, ≤ 0.2 for the second.

PYCN and GVCT cannot be ordered by “one-hybrid fitness for binding parS DNA” value: ≤ 0.2 for the first, ≤ 0.2 for the second.

HGYM and DSPT cannot be ordered by “one-hybrid fitness for binding parS DNA” value: ≤ 0.2 for the first, ≤ 0.2 for the second.

QSNY and QCGI cannot be ordered by “one-hybrid fitness for binding parS DNA” value: ≤ 0.2 for the first, ≤ 0.2 for the second.

QHDP and NLNR cannot be ordered by “one-hybrid fitness for binding parS DNA” value: ≤ 0.2 for the first, ≤ 0.2 for the second.

DQRR and CGLR cannot be ordered by “one-hybrid fitness for binding parS DNA” value: ≤ 0.2 for the first, ≤ 0.2 for the second.

KMNR and GVEM cannot be ordered by “one-hybrid fitness for binding parS DNA” value: ≤ 0.2 for the first, ≤ 0.2 for the second.

WMTY and LHYK cannot be ordered by “one-hybrid fitness for binding parS DNA” value: ≤ 0.2 for the first, ≤ 0.2 for the second.

Going from HTPV to RWHA, the “one-hybrid fitness for binding parS DNA” value rises from ≤ 0.2 to 0.378.

Compared with RKVA, PMGR is lower in “one-hybrid fitness for binding parS DNA” value: 0.527 for the first, ≤ 0.2 for the second.

QSII and WEGG cannot be ordered by “one-hybrid fitness for binding parS DNA” value: ≤ 0.2 for the first, ≤ 0.2 for the second.

KHYC and GTIR cannot be ordered by “one-hybrid fitness for binding parS DNA” value: ≤ 0.2 for the first, ≤ 0.2 for the second.

FALV and VQFL cannot be ordered by “one-hybrid fitness for binding parS DNA” value: ≤ 0.2 for the first, ≤ 0.2 for the second.

LVTQ and PPRW cannot be ordered by “one-hybrid fitness for binding parS DNA” value: ≤ 0.2 for the first, ≤ 0.2 for the second.

PSAF and ERVF cannot be ordered by “one-hybrid fitness for binding parS DNA” value: ≤ 0.2 for the first, ≤ 0.2 for the second.

FSAS and ETSI cannot be ordered by “one-hybrid fitness for binding parS DNA” value: ≤ 0.2 for the first, ≤ 0.2 for the second.

GVLV and CVNW cannot be ordered by “one-hybrid fitness for binding parS DNA” value: ≤ 0.2 for the first, ≤ 0.2 for the second.

ETLG and PFLD cannot be ordered by “one-hybrid fitness for binding parS DNA” value: ≤ 0.2 for the first, ≤ 0.2 for the second.

WSWL and QREL cannot be ordered by “one-hybrid fitness for binding parS DNA” value: ≤ 0.2 for the first, ≤ 0.2 for the second.

VDFS and QVTF cannot be ordered by “one-hybrid fitness for binding parS DNA” value: ≤ 0.2 for the first, ≤ 0.2 for the second.

EGVG and HQSL cannot be ordered by “one-hybrid fitness for binding parS DNA” value: ≤ 0.2 for the first, ≤ 0.2 for the second.

First: RMRA
Second: HWGA
The “one-hybrid fitness for binding parS DNA” value of the first is higher: 0.765 for the first, ≤ 0.2 for the second.

NTMG and DFSH cannot be ordered by “one-hybrid fitness for binding parS DNA” value: ≤ 0.2 for the first, ≤ 0.2 for the second.

ITPM and FCPG cannot be ordered by “one-hybrid fitness for binding parS DNA” value: ≤ 0.2 for the first, ≤ 0.2 for the second.

PIVG and KLNI cannot be ordered by “one-hybrid fitness for binding parS DNA” value: ≤ 0.2 for the first, ≤ 0.2 for the second.

SKSN and FTHL cannot be ordered by “one-hybrid fitness for binding parS DNA” value: ≤ 0.2 for the first, ≤ 0.2 for the second.

CALH and GMDV cannot be ordered by “one-hybrid fitness for binding parS DNA” value: ≤ 0.2 for the first, ≤ 0.2 for the second.

TPRY and SIPD cannot be ordered by “one-hybrid fitness for binding parS DNA” value: ≤ 0.2 for the first, ≤ 0.2 for the second.

ISRI and EYAC cannot be ordered by “one-hybrid fitness for binding parS DNA” value: ≤ 0.2 for the first, ≤ 0.2 for the second.

TTER and NHQR cannot be ordered by “one-hybrid fitness for binding parS DNA” value: ≤ 0.2 for the first, ≤ 0.2 for the second.
